About 150 (0.041%) of roughly 370,000 compounds were called active. The shares of active, inactive and inconclusive entries below differ from those in the screen. Calls come from the whole dose curve; as a rule, active = well fitted inhibition curve with a large enough effect; inconclusive = small, poorly fitted or top-dose-only effect; inactive = flat fitted curve, though single readings scatter. No potency is given beside an inconclusive call; the fits are too rough.
Each compound was assayed against Beta-lactamase (Escherichia coli (strain K12)) (UniProt P00811) (assay: qHTS Inhibitors of AmpC Beta-Lactamase (assay with detergent)). Conditions: AmpC hydrolysis of nitrocefin, absorbance 480 nm, 0.01% Triton; series mostly up to 114 µM.
Outline: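 20 mM phosphate pH 7.0 + 0.01% (detergent screen) or 0.0001% Triton X-100; 5.3 nM AmpC reagent; cpd preinc 15 min RT; nitrocefin (800 uM stock) to start; A480 q20 s × 4 min; Activity was normalised to no-enzyme and no-compound control wells.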
Note: nearly all actives have a fitted effect of over 25% in size.
Potency is the fitted concentration of half-maximal effect; tags give direction and shape of the fitted curve.

Chain of UniProt P00811 (P00811 whole entry, looked up): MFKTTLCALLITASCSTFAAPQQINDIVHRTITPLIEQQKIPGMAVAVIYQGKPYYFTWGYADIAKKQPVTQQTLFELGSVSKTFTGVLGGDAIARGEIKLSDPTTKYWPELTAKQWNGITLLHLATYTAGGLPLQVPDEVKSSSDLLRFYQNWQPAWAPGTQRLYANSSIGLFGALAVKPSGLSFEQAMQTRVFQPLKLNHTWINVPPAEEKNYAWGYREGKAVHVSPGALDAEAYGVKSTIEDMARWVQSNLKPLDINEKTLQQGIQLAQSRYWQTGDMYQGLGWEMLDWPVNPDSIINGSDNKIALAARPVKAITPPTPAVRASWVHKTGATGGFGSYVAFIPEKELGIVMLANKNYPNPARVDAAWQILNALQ

Row | Structure (SMILES) | Potency
1 | CN(C(=O)COC(=O)c1ccc2c(c1)OCO2)c1c(N)n(Cc2ccccc2)c(=O)[nH]c1=O | inconclusive [inhibitor, full curve]
2 | CCOc1ccc(C(c2c(NC(=O)c3ccccc3)sc(C)c2C)N2CCN(C)CC2)cc1 (stereo not given) | inactive
3 | Cc1cccc(NC(=O)CSc2nccn2Cc2ccco2)c1 | inactive
4 | Cc1ccc2cc(CCNC(=O)c3ccc4c(c3)OCO4)c(=O)[nH]c2c1 | inconclusive [inhibitor, full curve, poor fit]
5 | CC(C)OC(=O)NCCOC(=O)Nc1ccccc1Cl | inconclusive [inhibitor, single point]
6 | Nc1ccc2c(c1)C(=O)N(CCCC(=O)O)C2=O | inconclusive [inhibitor, full curve, poor fit]
7 | O=C(/C=C/c1ccc([N+](=O)[O-])s1)N1CCCCC1 | inconclusive [inhibitor, full curve, poor fit]
8 | Cc1nc2ccc3nc(NC(=O)C4COc5ccccc5O4)sc3c2s1 (stereo not given) | inconclusive [inhibitor, full curve, poor fit]
9 | COc1cc(/C=N/NC(=O)c2cc(-c3cccn3C)n[nH]2)cc(OC)c1OC | inconclusive [inhibitor, partial curve, poor fit]
10 | C=C(C)COc1ccc(-c2ncnc(C(F)(F)F)c2-c2ccccc2)c(O)c1 | inactive
11 | Cc1ccccc1C1c2[nH]c3ccccc3c2CCN1C(=O)c1ccc(=O)n(C)n1 (stereo not given) | inactive
12 | CC1=C(C(=O)OC(C)(C)C)C(c2ccco2)C(C#N)=C(N)O1 (stereo not given) | inconclusive [inhibitor, partial curve, poor fit]
13 | Cc1c(NS(=O)(=O)c2cc(C(=O)NCc3cccnc3)cc(Cl)c2Cl)c(=O)n(-c2ccccc2)n1C | inconclusive [inhibitor, full curve, poor fit]
14 | CCOc1cc(C2C(C(=O)OC)=C(C)N=C3SC(C)C(=O)N32)ccc1OC(C)=O (stereo not given) | inactive
15 | Cc1ccc(C)c(OCCn2c(=O)c3c(ncn3C3CCCC3)n(Cc3ccccc3)c2=O)c1 | inconclusive [inhibitor, full curve]
16 | CCCCCCC(=O)N/N=C/c1ccc(Br)cc1 | inconclusive [inhibitor, full curve, poor fit]
17 | COc1ccc(OC)c(CCNC(=O)c2cnn(-c3ccccc3)c2-n2cccc2)c1 | inactive
18 | CSc1ccccc1C(=O)Nc1nc2ccccc2[nH]1 | inconclusive [inhibitor, partial curve, poor fit]
19 | CC1(C)CC(NCc2ccncc2)CC(C)(C)N1 | inconclusive [inhibitor, single point]
20 | O=C(CSc1ncn(-c2ccccc2)n1)Nc1ccc2c(c1)OCO2 | inconclusive [inhibitor, full curve]
21 | O=C(CN1CCN(Cc2cccc(Cl)c2)C1=O)NCc1ccccn1 | inconclusive [inhibitor, full curve, poor fit]
22 | CSCCOC(=O)C1=C(C)NC(=O)NC1c1ccc2c(c1)OCO2 (stereo not given) | inconclusive [inhibitor, partial curve]

Row | Structure (SMILES) | Potency
23 | COC(=O)c1cc(NC(=O)C23CCC(C)(C(=O)O2)C3(C)C)cc(C(=O)OC)c1 (stereo not given) | inconclusive [inhibitor, single point]
24 | N#CC1=C(N)Oc2n[nH]c(-c3cccs3)c2C1C1C=CCCC1 (stereo not given) | inconclusive [inhibitor, full curve, poor fit]
25 | Cc1ccccc1C(=O)Nc1nnc(S(=O)(=O)N2CCc3ccccc32)s1 | inactive
26 | CCC1S/C(=C(\C#N)C(=O)NCc2ccco2)N(c2ccc(F)cc2)C1=O (stereo not given) | inconclusive [inhibitor, full curve, poor fit]
27 | Cc1cccc(NC(=O)C[n+]2cccc(C)c2)c1 | inactive
28 | CCOC(=O)c1cnn(-c2cccc(Cl)c2)c1N | inconclusive [inhibitor, full curve, poor fit]
29 | Cc1cc2ccccc2n1CCNC(=O)COc1ccc2ccccc2c1 | inconclusive [inhibitor, full curve, poor fit]
30 | NC(=O)CC(NC(=O)c1ccccc1)c1ccc(N2CCC(N3CCCC3)CC2)c([N+](=O)[O-])c1 (stereo not given) | inconclusive [inhibitor, full curve, poor fit]
31 | C/C=C/c1c(F)c(F)c(Oc2ccc(C(=O)O)cc2)c(F)c1F | inconclusive [inhibitor, full curve, poor fit]
32 | CC(C)=CCC/C(C)=C/CCC(C)NCCN1CCNCC1 (stereo not given) | inconclusive [inhibitor, partial curve, poor fit]
33 | CCN1CCN(C(=O)N(Cc2ccc(Cl)cc2)S(=O)(=O)c2ccc(C)cc2)CC1 | inconclusive [inhibitor, partial curve, poor fit]
34 | Cc1ccc(/C=N/n2c(C)nnc2C)cc1 | inconclusive [inhibitor, full curve, poor fit]
35 | CC(C)c1cc(NCCCN2CCOCC2)n2c(nc3ccccc32)c1C#N | inconclusive [inhibitor, full curve, poor fit]
36 | O=C(O)c1cccc(NC2=C(n3nnc4ccccc43)C(=O)c3ccccc3C2=O)c1 | inactive
37 | Cc1ccc(OCc2cc(C(=O)NC(C)Cc3cccnc3)no2)cc1C (stereo not given) | inactive
38 | Cc1cccc(C)c1NC(=O)CSCC(=O)O | inactive
39 | COc1ccc(CCNC(=O)CCc2c(C)nc3cc(-c4ccc(Cl)cc4)nn3c2C)c(OC)c1 | inactive
40 | CC1CCN(c2oc(-c3ccccc3Cl)nc2C#N)CC1 | inconclusive [inhibitor, partial curve, poor fit]
41 | CCOc1ccccc1C(=O)Nc1ccc(S(=O)(=O)Nc2nccc(C)n2)cc1 | inactive
42 | CCOC(=O)c1c(C)[nH]c(C(=O)OCC(=O)N2c3ccccc3CC2C)c1C (stereo not given) | inconclusive [inhibitor, partial curve, poor fit]
43 | O=C(CN1C(=O)NC2(CCCCC2)C1=O)NCCC1=CCCCC1 | inconclusive [inhibitor, full curve, poor fit]
44 | Cc1noc(/C=C/c2ccccc2F)c1S(=O)(=O)N1CCC(C(=O)NCc2ccco2)CC1 | inactive

Row | Structure (SMILES) | Potency
45 | O=C(N/N=C/c1ccccc1C(F)(F)F)c1ccc2nc[nH]c2c1 | inconclusive [inhibitor, full curve]
46 | O=[N+]([O-])c1ccccc1S(=O)(=O)Oc1ccccc1/C=N/n1cnnc1 | inconclusive [inhibitor, partial curve, poor fit]
47 | Cc1ccc(CSCCNC(=O)CN(c2cc(C)ccc2C)S(C)(=O)=O)cc1 | inconclusive [inhibitor, full curve, poor fit]
48 | CCOC(=O)N1CCN(c2ncc3c(n2)CC(c2ccc(OC)c(OC)c2)CC3=O)CC1 (stereo not given) | inactive
49 | COc1ccc(CCNC(=O)C(=O)NCC2OCCN2S(=O)(=O)c2cc(F)ccc2F)cc1 (stereo not given) | inconclusive [inhibitor, full curve, poor fit]
50 | Cc1c(Cl)cccc1NC(=S)NC1CCCC1 | inconclusive [inhibitor, full curve, poor fit]
51 | O=C(N/N=C/C(Br)=C\c1ccccc1)c1ccc2nc[nH]c2c1 | inactive
52 | CN(CC(=O)Nc1ccc(Cl)c(C(F)(F)F)c1)C(=O)C1CC(=O)N(Cc2ccco2)C1 (stereo not given) | inactive
53 | C=C1c2cccc(O)c2C(O)=C2C(=O)[C@]3(O)C(O)=C(C(N)=O)C(=O)[C@@H](N(C)C)[C@@H]3[C@@H](O)[C@H]12 | inconclusive [inhibitor, partial curve]
54 | O=C(CSC1=NCCS1)Nc1nc2ccccc2s1 | inconclusive [inhibitor, partial curve, poor fit]
55 | Cc1cc(C(=O)COC(=O)c2ccccc2O)c(C)n1CC1CCCO1 (stereo not given) | inactive
56 | CCCNC(=O)NC(=O)CSc1ccc(C)cc1C | inconclusive [inhibitor, full curve, poor fit]
57 | COC(=O)C1=C(C)N(Cc2ccccc2)C(=NCc2ccc(OC)cc2)N[C@H]1c1ccc(Br)cc1 | inconclusive [inhibitor, partial curve]
58 | N#Cc1ccc(N2CCCC2C(=O)O)c([N+](=O)[O-])c1 (stereo not given) | inconclusive [inhibitor, full curve]
59 | CC(=O)c1cccc(NC(=O)c2ccc(N(Cc3ccc(C)cc3)S(C)(=O)=O)cc2)c1 | inactive
60 | Cc1c(OCC(=O)N[C@@H](Cc2ccccc2)C(=O)O)ccc2c3c(c(=O)oc12)CCC3 | inconclusive [inhibitor, full curve, poor fit]
61 | COc1ccc(Nc2cc(C(=O)NCc3ccccn3)c3ccccc3n2)c(OC)c1 | inconclusive [inhibitor, partial curve, poor fit]
62 | COc1ccc(N(C)S(=O)(=O)c2cccc(C(=O)OCC(=O)NCc3ccccc3OC)c2)cc1 | inactive
63 | COc1ccccc1/C=N/NC(=O)c1cccc2ccccc12 | inconclusive [inhibitor, full curve, poor fit]
64 | CC(=O)c1c(C)[nH]c(C(=O)Nc2cc(S(=O)(=O)N3CCCCC3)ccc2C)c1C | inconclusive [inhibitor, full curve, poor fit]
65 | CC1CCCCC1NC(=O)CCS(=O)(=O)c1ccc2c(c1)NC(=O)CO2 (stereo not given) | inconclusive [inhibitor, full curve, poor fit]
